Data taken from the supplement of paper PMC10126150.
Sequences with one replicate were seen in a single cluster, so their values are uncertain.

Tested on: ATP
Test: switch fluorescence ratio, 500 uM ATP over buffer (Cy3 cluster intensity, sum of 5 cycles each) (fold (ratio)); higher = stronger signal-on switching upon ATP binding; sequences stand for … in TCGTCGGCAGCGTCAGATGTGTATAAGAGACAGTTTTTTTTTTTTTTTTTTTTTTTTT…TC
Settings: aptamer strand: ATP DNA aptamer (quencher-CACCTGGGGGAGTATTGCGGAGGAAGG + anchor), 100 nM annealed; ATP concentration: 500 uM; one replicate
Outline: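 Cy3-labelled switching-strand clusters on a modified Illumina MiSeq flow-cell were annealed to 100 nM quencher-labelled ATP aptamer and imaged first in selection buffer, then after 15 min with 500 uM ATP at 22 °C. NaOH stripping and re-annealing separated each of five buffer/ATP cycles, and clusters outside 100-1000 RFU were excluded. The fluorescence ratio sums target-cycle Cy3 intensity over buffer-cycle Cy3 intensity per cluster and averages it per switch-domain sequence.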
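Further: ATP exposure 15 min at 22 °C before imaging.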

Sequence: AAACTTGAAT
- switch fluorescence ratio: 1.02

Sequence: CCCCTAACTC
- switch fluorescence ratio: 1.17

Sequence: CTTCAAAACC
- switch fluorescence ratio: 1.06

Sequence: GATTAAATCT
- switch fluorescence ratio: 1.01

Sequence: ATGTGAAGGT
- switch fluorescence ratio: 1.04

Sequence: CAATGGTTA
- switch fluorescence ratio: 0.973

Sequence: GTTAGTAGTA
- switch fluorescence ratio: 0.988

Sequence: GGGGCACGTT
- switch fluorescence ratio: 1.03

Sequence: TGGAGTGGCT
- switch fluorescence ratio: 0.964

Sequence: AGAAATCGCG
- switch fluorescence ratio: 1

Sequence: ACGATTTACT
- switch fluorescence ratio: 1.08

Sequence: ATTACGGTCG
- switch fluorescence ratio: 1.06

Sequence: GCTTGGGAGG
- switch fluorescence ratio: 0.996

Sequence: TCGGATGTA
- switch fluorescence ratio: 0.952

Sequence: ATGCTTGGCT
- switch fluorescence ratio: 0.931

Sequence: GATGGGCATG
- switch fluorescence ratio: 0.987

Sequence: GAGATCGACT
- switch fluorescence ratio: 0.98

Sequence: GAACTGAGTT
- switch fluorescence ratio: 1.01

Sequence: AGCGCATTAC
- switch fluorescence ratio: 3.99

Sequence: GCCGTGGGTG
- switch fluorescence ratio: 1.04

Sequence: CTGATGAGGG
- switch fluorescence ratio: 0.941

Sequence: ATTTATGTCA
- switch fluorescence ratio: 0.997

Sequence: TCGTAAGGT
- switch fluorescence ratio: 1.05

Sequence: GCCTAAGTAC
- switch fluorescence ratio: 1.29

Sequence: CGAGGACAAT
- switch fluorescence ratio: 2.4

Sequence: ATAGGACCAT
- switch fluorescence ratio: 0.996

Sequence: AACTGATCGG
- switch fluorescence ratio: 0.933

Sequence: GGCTACGGTG
- switch fluorescence ratio: 1.03

Sequence: ATTACCATCA
- switch fluorescence ratio: 1.05

Sequence: TGCTACGGAG
- switch fluorescence ratio: 1.04

Sequence: GTCATAGAAG
- switch fluorescence ratio: 0.995

Sequence: TTCGATATCG
- switch fluorescence ratio: 1.02

Sequence: ACCACGAGTT
- switch fluorescence ratio: 1.04

Sequence: TGTGGAGGAT
- switch fluorescence ratio: 0.967

Sequence: CTAGGAAGG
- switch fluorescence ratio: 1.06

Sequence: TATAAATCGC
- switch fluorescence ratio: 0.963

Sequence: TAAAGCGGCC
- switch fluorescence ratio: 1.2

Sequence: AGGTGTTTTC
- switch fluorescence ratio: 1

Sequence: ATTTTCGACC
- switch fluorescence ratio: 1.09

Sequence: GCAGTAGAAG
- switch fluorescence ratio: 1.01

Sequence: TAGTGTCGGC
- switch fluorescence ratio: 0.992

Sequence: GCTCCTTGTT
- switch fluorescence ratio: 1.04

Sequence: ACGATCGTTG
- switch fluorescence ratio: 0.98

Sequence: GGGAGGACGG
- switch fluorescence ratio: 1.02

Sequence: TCTGAATACT
- switch fluorescence ratio: 1.26

Sequence: CGATTTTCTG
- switch fluorescence ratio: 1.01

Sequence: CAGTCTTGAC
- switch fluorescence ratio: 0.995

Sequence: CCATTATTCG
- switch fluorescence ratio: 0.942

Sequence: ACCATGCGT
- switch fluorescence ratio: 0.994

Sequence: GGATATACAA
- switch fluorescence ratio: 1

Sequence: GGCGCACTGG
- switch fluorescence ratio: 1.1

Sequence: ATCAACGTAA
- switch fluorescence ratio: 1.2

Sequence: AAAGTGAATC
- switch fluorescence ratio: 0.989

Sequence: CCCTGTTGGG
- switch fluorescence ratio: 0.947

Sequence: AAGGAGATGT
- switch fluorescence ratio: 1.01

Sequence: TCCTAAGATT
- switch fluorescence ratio: 0.969

Sequence: GAGTACTGGG
- switch fluorescence ratio: 0.961

Sequence: CCAGGCGACT
- switch fluorescence ratio: 0.989

Sequence: CCTAAGGTGC
- switch fluorescence ratio: 2.38

Sequence: GGGCAGTGTC
- switch fluorescence ratio: 1.08

Sequence: GGTGCAGGCC
- switch fluorescence ratio: 1.01

Sequence: GATATTAGAC
- switch fluorescence ratio: 0.993

Sequence: TCAACTATA
- switch fluorescence ratio: 1.04

Sequence: TAAATCCGCT
- switch fluorescence ratio: 1.22

Sequence: CGCTCTGGGA
- switch fluorescence ratio: 1.04

Sequence: GTCAATATAA
- switch fluorescence ratio: 0.951

Sequence: TATTGTATTT
- switch fluorescence ratio: 1.02

Sequence: GGACATTAGA
- switch fluorescence ratio: 1.02

Sequence: TTAATTGACT
- switch fluorescence ratio: 1.05

Sequence: CGTATGTAAG
- switch fluorescence ratio: 0.917

Sequence: ATGGCTGCAA
- switch fluorescence ratio: 1.56

Sequence: TCAGATCACG
- switch fluorescence ratio: 0.978

Sequence: CTTATGGCGA
- switch fluorescence ratio: 0.987

Sequence: CGCATCCAAA
- switch fluorescence ratio: 1.08

Sequence: TTAGCATCGT
- switch fluorescence ratio: 1.01

Sequence: AAAATTTAGT
- switch fluorescence ratio: 1.02

Sequence: AGGGTGAAGC
- switch fluorescence ratio: 1.09

Sequence: TCGGGCTGAT
- switch fluorescence ratio: 0.987

Sequence: TTTCCCCCGG
- switch fluorescence ratio: 2.07

Sequence: AGGTGCGGCC
- switch fluorescence ratio: 1

Sequence: ATTAATACCC
- switch fluorescence ratio: 1.02

Sequence: TATTCTCGCT
- switch fluorescence ratio: 1.23

Sequence: TTGCGAAGGG
- switch fluorescence ratio: 1.28

Sequence: TCGGCGCGC
- switch fluorescence ratio: 0.972

Sequence: ATTAATAAGT
- switch fluorescence ratio: 0.957

Sequence: CAGACTGGCG
- switch fluorescence ratio: 0.964

Sequence: CTAGGTGCGT
- switch fluorescence ratio: 1.07

Sequence: AAAGTTAATT
- switch fluorescence ratio: 1

Sequence: ATGTGATCG
- switch fluorescence ratio: 1.03

Sequence: TCATATATTG
- switch fluorescence ratio: 0.967

Sequence: TTGAAAAG
- switch fluorescence ratio: 1.02

Sequence: TTGTGACATG
- switch fluorescence ratio: 1.08

Sequence: CGGACGGTAC
- switch fluorescence ratio: 3.69

Sequence: TTCACATCAA
- switch fluorescence ratio: 1.01

Sequence: CAGAAAAACC
- switch fluorescence ratio: 0.986

Sequence: CGGGGCCGG
- switch fluorescence ratio: 0.947

Sequence: TCGGATTAAG
- switch fluorescence ratio: 0.995

Sequence: TCGCATAAAG
- switch fluorescence ratio: 1.09

Sequence: GACAATGGGT
- switch fluorescence ratio: 0.965

Sequence: GCAATTCGCA
- switch fluorescence ratio: 1.07

Sequence: ATCTGAAGCC
- switch fluorescence ratio: 1.27

Sequence: AGCATCGCGA
- switch fluorescence ratio: 1.09

Sequence: GTATGTGGTA
- switch fluorescence ratio: 0.967

Sequence: TTCTGGAATA
- switch fluorescence ratio: 1.17

Sequence: GGCCGGTTTA
- switch fluorescence ratio: 1.01

Sequence: TTATTGCAAG
- switch fluorescence ratio: 1.04

Sequence: TTACAGTCTG
- switch fluorescence ratio: 0.993

Sequence: TCGGCCCTAC
- switch fluorescence ratio: 1.61

Sequence: CAGAAGTGGC
- switch fluorescence ratio: 1.01

Sequence: TAAGACGAGG
- switch fluorescence ratio: 1

Sequence: TTTTGCTTCC
- switch fluorescence ratio: 1.93

Sequence: AAATACACCC
- switch fluorescence ratio: 1.36

Sequence: CTCGGAAGGA
- switch fluorescence ratio: 1.01

Sequence: CAATGAAGTC
- switch fluorescence ratio: 0.977

Sequence: GTTTCGCGCG
- switch fluorescence ratio: 1

Sequence: GCGACCGGAA
- switch fluorescence ratio: 2.58

Sequence: GGGTTTGCGC
- switch fluorescence ratio: 0.976

Sequence: TTATCACGTA
- switch fluorescence ratio: 1.16

Sequence: AATCGAGTTC
- switch fluorescence ratio: 1.01

Sequence: ACACGTTATT
- switch fluorescence ratio: 1.21

Sequence: TGACCAGTAA
- switch fluorescence ratio: 1.02

Sequence: GTTTAATGT
- switch fluorescence ratio: 0.95

Sequence: TTTGTACGTC
- switch fluorescence ratio: 1.07

Sequence: TAGAAGAGGG
- switch fluorescence ratio: 0.98

Sequence: AAAAGCAGTA
- switch fluorescence ratio: 1.04

Sequence: TTTTTCAGC
- switch fluorescence ratio: 1.02

Sequence: CACGCCAGCA
- switch fluorescence ratio: 1.09

Sequence: TATTCAAAAG
- switch fluorescence ratio: 0.98

Sequence: CAGCGCTAGA
- switch fluorescence ratio: 1

Sequence: GGGAAATCCA
- switch fluorescence ratio: 1.01

Sequence: TGTCCGGGTA
- switch fluorescence ratio: 1.61

Sequence: ACGTAGTGTG
- switch fluorescence ratio: 1.04

Sequence: GTATAATTTA
- switch fluorescence ratio: 1.01

Sequence: CGAGCCGCAT
- switch fluorescence ratio: 1.08

Sequence: ATGTTGGATG
- switch fluorescence ratio: 1.02

Sequence: GAGATCAGGT
- switch fluorescence ratio: 0.981

Sequence: CTCAACTGGG
- switch fluorescence ratio: 1.18

Sequence: GGGTGGACGT
- switch fluorescence ratio: 1

Sequence: AAGCTTGTAT
- switch fluorescence ratio: 1.03

Sequence: GGATCGGGA
- switch fluorescence ratio: 1.03

Sequence: AACAGGAGGT
- switch fluorescence ratio: 0.948

Sequence: TTCAATTCTC
- switch fluorescence ratio: 1.07

Sequence: GCGAACGCCA
- switch fluorescence ratio: 1.26

Sequence: TCCAGTGCTG
- switch fluorescence ratio: 0.965

Sequence: ATATTGGCCT
- switch fluorescence ratio: 1.1

Sequence: ATAAATGAA
- switch fluorescence ratio: 1.01

Sequence: TAGGGGTATT
- switch fluorescence ratio: 0.966

Sequence: TTATCGTGGG
- switch fluorescence ratio: 1.03

Sequence: TGCTGTTTTC
- switch fluorescence ratio: 1.03

Sequence: GTTACCCGTT
- switch fluorescence ratio: 0.98

Sequence: AGCCGCTTGA
- switch fluorescence ratio: 1.06

Sequence: TGTAGGTAGC
- switch fluorescence ratio: 0.997

Sequence: TTCTTAATGA
- switch fluorescence ratio: 1.03

Sequence: AGACTCTTAT
- switch fluorescence ratio: 1.02

Sequence: ACTGGATTGC
- switch fluorescence ratio: 1.02

Sequence: CATGGATCGT
- switch fluorescence ratio: 0.986

Sequence: CCAGTATGCC
- switch fluorescence ratio: 0.936
